Data from PubChem BioAssay AID488969 (Vanderbilt High Throughput Screening Facility, 2010).
Where “and” joins values, the source holds several entries; their conditions need not be identical. Identical values can stand only once. Whole data set: some 110,000 compounds, median “z-score” near -0.1, cut for the highest 2% near 2. Some of the results follow. Calls of active or inactive are those of the source.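 Rule for the calls: active = z-score in the third read window above 3 or below -3; inactive = the rest.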

These molecules were tested against Metabotropic glutamate receptor 8 (Rattus norvegicus) (UniProt P70579) (assay: mGluR8 Gi/Go-coupled signaling modulation – cell-based, rat, thallium flux, HTS, primary screen (AID 488969)). Conditions: HEK293 rat mGluR8, GIRK (G protein-gated inwardly rectifying potassium channel) thallium flux, FluoZin2; at 10 µM; stronger effect = higher value; submaximal glutamate (EC20) added with thallium.
UniProt P70579, sequence (P70579 whole entry, looked up): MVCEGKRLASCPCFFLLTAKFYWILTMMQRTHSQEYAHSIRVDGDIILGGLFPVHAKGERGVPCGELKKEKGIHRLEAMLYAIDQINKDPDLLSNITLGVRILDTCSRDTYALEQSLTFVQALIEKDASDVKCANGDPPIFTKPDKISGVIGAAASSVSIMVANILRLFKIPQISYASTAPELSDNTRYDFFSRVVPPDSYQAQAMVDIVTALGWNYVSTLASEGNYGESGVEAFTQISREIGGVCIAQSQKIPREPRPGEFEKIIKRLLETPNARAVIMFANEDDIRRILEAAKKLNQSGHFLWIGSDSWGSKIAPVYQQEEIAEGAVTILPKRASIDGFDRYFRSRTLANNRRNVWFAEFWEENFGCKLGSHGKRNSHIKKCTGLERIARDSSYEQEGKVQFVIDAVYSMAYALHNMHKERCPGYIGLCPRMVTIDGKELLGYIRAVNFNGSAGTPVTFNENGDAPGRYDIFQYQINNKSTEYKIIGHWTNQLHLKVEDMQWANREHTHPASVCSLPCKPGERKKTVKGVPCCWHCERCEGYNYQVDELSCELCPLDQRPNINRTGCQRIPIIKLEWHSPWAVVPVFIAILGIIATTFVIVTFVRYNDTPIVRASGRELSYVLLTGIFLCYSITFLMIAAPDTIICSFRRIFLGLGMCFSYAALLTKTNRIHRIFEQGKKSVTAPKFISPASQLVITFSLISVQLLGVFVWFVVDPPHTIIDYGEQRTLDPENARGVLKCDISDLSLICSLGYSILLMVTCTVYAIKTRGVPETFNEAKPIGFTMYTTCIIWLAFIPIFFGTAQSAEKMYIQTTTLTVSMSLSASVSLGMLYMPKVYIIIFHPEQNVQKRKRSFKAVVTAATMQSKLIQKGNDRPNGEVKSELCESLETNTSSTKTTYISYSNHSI

In order of rising z-score:
1. Cc1cc(-c2[nH]nc3c2C(c2ccsc2)C(C#N)=C(N)O3)c(C)s1 (stereo not given)  -1.78
2. O=C(Nc1ccc2nc(-c3ccc(Br)o3)[nH]c2c1)c1cccs1  -0.969
3. CCOC(=O)N1CCN(C(=O)c2ccc(CNS(=O)(=O)c3ccc(C)cc3)cc2)CC1  -0.952
4. O=C(c1cccc(F)c1)N1CCC(O)(c2cccnc2)CC1  -0.862
5. COc1cc(/C=C2/C(=O)NN(c3ccc(Cl)cc3)C2=O)ccc1OC(=O)c1ccco1  -0.835
6. C=CCn1c(SCC(=O)N2CCOCC2)nc2sc3c(c2c1=O)CCCC3  -0.745
7. CN(C)C(=S)SCC(=O)Nc1cccc(C(F)(F)F)c1  -0.692
8. Cc1cc(NCCCn2ccnc2)n2nc(C)c(-c3ccccc3)c2n1  -0.627
9. Cc1cc(NC(=O)CSc2nnc(-c3ccccc3)n2Cc2ccco2)no1  -0.599
10. CCCN(CCC)C(=O)Cn1c(=O)n(CCCCC(=O)NC2CCCC2)c(=O)c2ccccc21  -0.542
11. COC(=O)c1ccc(Oc2c(C)oc3c(CN4CCN(C)CC4)c(O)ccc3c2=O)cc1  -0.522
12. CCC(c1nnnn1CCOC)N(Cc1cc2cc(C)c(C)cc2[nH]c1=O)CC1CCCO1 (stereo not given)  -0.47
13. O=C1CCCC2=C1C(c1ccc3c(c1)OCO3)c1c([nH]n(-c3ccccc3)c1=O)N2 (stereo not given)  -0.455
14. CCOc1ccc(C2N(c3ccc(F)cc3)C(=O)C3CCCN32)cc1OC (stereo not given)  -0.445
15. Cc1cc(NC(=O)COc2ncnc3sc(C)c(C)c23)no1  -0.395
16. O=C(Cn1nnc2ccccc21)OCC(=O)c1ccccc1  -0.385
17. CCOC(=O)c1ccc(NS(=O)(=O)N2CCCCCC2)cc1  -0.322
18. CCOC(=O)CN1c2ccccc2NC(=O)CC1C (stereo not given)  -0.291
19. COc1ccccc1NC(=O)c1nn(-c2cccc(C(F)(F)F)c2)ccc1=O  -0.287
20. O=c1c2ccccc2c(C=Nc2cccc(O)c2)c(O)n1-c1ccc2c(c1)OCO2  -0.281
21. CCN(CC)S(=O)(=O)c1ccc(C(=O)Nc2cc3oc4ccccc4c3cc2OC)cc1  -0.275
22. COc1ccccc1NC(=O)Cn1nnc(-c2ccccc2NC(=O)c2cc3ccccc3oc2=O)n1  -0.267
23. COc1ccc(NC(=S)NC(NC(=O)c2ccc(Cl)cc2Cl)C(Cl)(Cl)Cl)c([N+](=O)[O-])c1 (stereo not given)  -0.264
24. O=C(CCC1COc2ccccc2O1)Nc1ccccn1 (stereo not given)  -0.203
25. CC(Nc1c([N+](=O)[O-])c(=O)oc2ccccc12)C(Cl)c1ccccc1 (stereo not given)  -0.193
26. CCOc1ccccc1OCCOc1ccccc1OC(C)C  -0.189
27. CCOC(NC(=O)c1ccccc1)C(NC(=O)c1ccccc1)OCC (stereo not given)  -0.184
28. O=C(CSCc1ccccc1Br)N/N=C/c1ccc(OCC(=O)N2CCCCC2)cc1  -0.174
29. CCCn1c(=O)n(N)c2ccccc21  -0.166
30. COC(=O)c1[nH]c2ccccc2c1NC(=O)CNC1CCCCC1  -0.161
31. COCCNC(=S)NC1CC2CCCC(C1)N2Cc1cccs1 (stereo not given)  -0.161
32. CC1CCCN(C(=O)c2ccc3nc[nH]c3c2)C1 (stereo not given)  -0.158
33. CCOC(=O)C1(O)CC(C)=NN1C(=O)c1cccc(Cl)c1 (stereo not given)  -0.149
34. O=C(/C=C/c1cccs1)Nc1ccncc1  -0.142
35. COc1ccc(C(=O)NC2c3ccccc3-c3ccccc32)cc1  -0.134
36. CCC(C)(C)n1nnnc1CN(Cc1ccco1)Cc1cc2cc3c(cc2[nH]c1=O)OCO3  -0.127
37. COc1ccc(NC(=O)COC(=O)c2ncc(Cl)c(Cl)c2Cl)c(OC)c1  -0.122
38. CC(C)OC(=O)c1ccc(S(N)(=O)=O)o1  -0.121
39. CC(C)(C)C(=O)Cn1ncc(N2CCCC2)c(Br)c1=O  -0.119
40. COc1ccc(N2CCN(S(=O)(=O)c3ccc(C(=O)NC4CCCC4)cc3)CC2)cc1  -0.118
41. O=C1N(O)C2(C=CCCC2)/C(=N\O)C12CCCCC2 (stereo not given)  -0.112
42. Cc1c(Cl)cnc(NC(=O)COC(=O)c2ccc3ncsc3c2)c1Cl  -0.0663
43. COC(=O)c1ccc(CSc2nc(-c3ccc(OC)cc3)nc3c2c(=O)n(C)c(=O)n3C)o1  -0.0566
44. Cc1ccc(Cn2ccc(NC(=O)c3noc4c3CCc3ccccc3-4)n2)cc1  -0.0547
45. CCC(=O)N1CCN(c2ccccc2NC(=O)Cc2ccccc2)CC1  -0.0127
46. O=C1N(c2ccc(Cl)cc2)C(c2ccccc2)N2CCCN12 (stereo not given)  -0.0124
47. Cc1cc(C)c2cc(C#N)c(NCCCNC(=O)CCC(=O)O)nc2c1  -0.00468
48. CCn1c(=O)c(C(=O)NCc2ccc(OC)cc2)c(O)c2ccccc21  0.00466
49. CCOC(=O)N1CCN(S(=O)(=O)c2cccc3ccc(C)nc23)CC1  0.0178
50. O=C(NCc1ccco1)c1ccccc1-c1nc(-c2ccccc2)no1  0.0522
51. O=C(Nc1cccs1)Nc1c(F)cc(F)cc1Br  0.103
52. CCCCC(=O)Nc1cccc(NC(=S)NC(=O)COc2ccccc2Cl)c1  0.162
53. O=C(NCc1cccnc1)c1ccc(S(=O)(=O)N2CCOCC2)cc1  0.181
54. CCCCCC(=O)NNC(=O)Nc1ccccc1  0.2
55. COc1ccc(CCNS(=O)(=O)c2cccc3nsnc23)cc1OC  0.233
56. O=C(Nc1ccccc1)OCCOc1ccccc1  0.244
57. O=C(Cc1nn[nH]n1)NCCC1=CCCCC1  0.328
58. CC(=O)Nc1ccc(OCC(O)CN2CCN(c3ccc(C)c(Cl)c3)CC2)cc1 (stereo not given)  0.331
59. Cc1cccc(-n2ccnc2SCC(=O)Nc2nnc(C)s2)c1  0.337
60. CCC(C)NC(=O)NC(=O)N(C1CCCCC1)S(C)(=O)=O (stereo not given)  0.407
61. CCOC(=O)CSc1nnc([C@H](C)NC(=O)OC(C)(C)C)o1  0.47
62. COCc1cc(=O)[nH]c(SCC(=O)Nc2ccccc2)n1  0.592
63. O=C1OC(Cc2ccccn2)C(O)=C1C1=NCCCCN1 (stereo not given)  0.614
64. COCC(C)NC(=O)c1cccc(Cl)c1 (stereo not given)  0.653
65. COc1ccc2sc3c(=O)[nH]c4ccccc4c3c2c1  0.853
66. C/C(=N\NC(=O)c1ccc(Cl)c(Cl)c1)c1ccc(Br)s1  1.19
67. COc1ccccc1OCC(=O)Nc1oc(-c2ccccc2)c(-c2ccccc2)c1C#N  2.87

In the case of `O=C1Nc2ccccc2C12OCC1(CO2)COC2(OC1)C(=O)Nc1ccccc12` (stereo not given), the z-score is reported as active: 3.45.
For `COc1ccccc1NC(=O)c1ccc(S(=O)(=O)N2CCCC2)cc1`, the z-score was active: 3.99.
For `CCOC(=O)c1c(CN2CCOCC2)n(C)c2cc(Br)c(O)c(CN(C)C)c12`, the z-score was -0.443 and -0.878.
